# The inconclusive results got no clear call from the source; some entries with a clear call stand among them for comparison. Where the call is inconclusive, the potency comes from a doubtful curve fit. Calls of active or inactive are those of the source. The call rests on the fitted dose curve; in most records, active means well fitted inhibition curve with a large enough effect; inconclusive means small, poorly fitted or top-dose-only effect; inactive means no such curve, though single readings can be large or run the other way.
# Assay: Confirmatory qHTS for Identification of Small Molecule Inhibitors of Huntingtin Promoter Activity; further: nearly all actives have a fitted effect of over 65% in size
# Settings: HEK293 HTT promoter firefly luciferase reporter, 24 h; series mostly up to 57.5 µM; activity change, negative = inhibition: at the top concentration
# Text: Assay Provider: Russell L. Margolis M.D.
# Department Neurology, Johns Hopkins University School of Medicine, Baltimore, MD
# Huntington's Disease (HD) is a neurodegenerative disorder caused by a CAG repeat expansion in exon 1 of huntingtin (HTT). While there are currently no disease-modifying treatments for HD, recent efforts have focused on development of nucleotide-based therapeutics to lower HTT expression. As an alternative to siRNA or oligonucleotide methods, we hypothesized that suppression of HTT expression might be accomplished by small molecules that either (1) directly decrease HTT expression by suppressing HTT promoter activity or (2) indirectly decrease HTT expression by increasing the promoter activity of HTT-AS, the gene antisense to HTT that appears to inhibit expression of HTT.
# We developed and employed a high throughput screen for modifiers of HTT and HTT-AS promoter activity using luminescent reporter HEK293 cells; of the 52,041 compounds tested, we identified 898 replicable hits. We used a rigorous stepwise approach to assess compound toxicity and the capacity of the compounds to specifically lower huntingtin protein in 5 different cell lines, including HEK293 cells, HD lymphoblastoid cells, mouse primary neurons, HD iPSCs differentiated into cortical-like neurons, and HD hESCs. We found no compounds which were able to lower huntingtin without lowering cell viability in all assays, though the potential efficacy of a few compounds at non-toxic doses could not be excluded.
# SEQUENCE No. (1, 2, 3, etc.); […] (e.g., Cells, Incubation, Reagent, etc.); VALUE and DESCRIPTION.
# 1; Reagent; 4 uL; 2,500 Hek293 luciferase reporter cells per wells
# 3; Compound; 23 nL; Control inhibitor / compound library
# 5; Reagent; 2.5 uL; Firefly Luc reagent; Dual-Glo Luciferase Reporter Assay System (Promega)
# 6; Time; 10 min; room temperature incubation
# 7; Detection; Luminescence; FLuc
# NOTES (numbers refer to sequence above)
# 1; High-throughput screening, measuring luminescence from a Hek293 luciferase reporter, was performed in 1,536 well white-walled tissue-culture treated plates. 2,500 cells were plated in 4 uL of Opti-MEM per well using a Multidrop Combi Reagent Dispenser (ThermoFisher).
# 2; Assay plates were cultured for 24 hours.
# 3; Control inhibitor (PTC124; final concentration of 50 uM) and compound library (at final concentrations of 460 nM - 57.5 uM) were added to the assay plate using the Kalypsis Pintool Robotic System equipped with 1536 pinheads.
# 4; Cells were then incubated for 24 hours at 37C prior to luminescence measurements.
# 5; In all cases, luminescence was measured using the Dual-Glo Luciferase Reporter Assay System (Promega) following the manufacturer's instructions.
# 6; Room temperature incubation.
# 7; Luminescence signal was obtained using the PerkinElmer ViewLux plate reader. Results were normalized to vehicle control (0% activity) and zero RLU (-100% activity).
# Potency means the concentration at half of the fitted maximal effect; tags describe the fitted curve by direction and shape.
Structure (SMILES),"activity change, negative = inhibition",Potency
CCOC(=O)C1CCN(C(=O)Cn2c(-c3cccs3)cc3cc(Cl)ccc32)CC1,inactive: -21.2%,–
CC(=O)c1cccc(NS(=O)(=O)c2cccc(S(=O)(=O)c3ccc(Br)cc3)c2)c1,–,active: 26.9 µM
COC(=O)c1c(C)oc2ccc(N(C(=O)c3ccncc3)S(=O)(=O)c3ccc(Br)cc3)cc12,–,"inconclusive: 9.53 µM [inhibitor, partial curve]"
O=C(c1ccc2c(c1)N(Cc1ccccc1)C(=O)c1ccccc1S2(=O)=O)N1CCCCCC1,inactive: -23.2%,–
Cc1ccc(C)c(N2CCN(C(=O)C3CCCN(S(=O)(=O)c4ccc5c(c4)oc(=O)n5C)C3)CC2)c1 (stereo not given),–,"inconclusive: 12 µM [inhibitor, partial curve]"
Cc1ccc(C(=O)Nc2ccc(S(=O)(=O)N(Cc3ccccc3)c3ccccc3)cc2)cc1,–,"inconclusive: 6.01 µM [inhibitor, partial curve]"
Cc1ccc(NCc2cccn2-c2nnc(N3CCC(C(=O)NCCC(C)C)CC3)s2)cc1,–,"inconclusive: 12 µM [inhibitor, partial curve]"
Cc1ccc(Cl)cc1N(C)C(=O)C1CCCN(c2ncnc3onc(-c4ccc(F)cc4)c23)C1 (stereo not given),–,"inconclusive: 19 µM [inhibitor, partial curve]"
Cc1ccc2nc(SCc3nc(-c4ccccc4C)no3)[nH]c2c1,–,"inconclusive: 21.3 µM [inhibitor, partial curve]"
COc1ccccc1N1CCN(S(=O)(=O)c2ccc(F)c(C(=O)Nc3ccc(Cl)cc3C(F)(F)F)c2)CC1,inactive: -15.9%,–
CCS(=O)(=O)NCCc1sc2nc(-c3ccc(OC)cc3)nn2c1C,–,"inconclusive: 16.9 µM [inhibitor, partial curve, poor fit]"
COc1ccc(S(=O)(=O)N2CCC(c3nnnn3-c3ccccc3)CC2)cc1OC,–,"inconclusive: 26.9 µM [inhibitor, single point]"
Cc1ccc(-c2nnc(Nc3ccc(F)cc3)c3ccccc23)cc1S(=O)(=O)NC(C)C,–,"inconclusive: 19 µM [inhibitor, partial curve]"
N#Cc1nc(-c2ccc(COc3ccc(Cl)cc3)o2)oc1N1CCC(C(N)=O)CC1,–,"inconclusive: 16.9 µM [inhibitor, partial curve]"
COc1cccc(C2=CC(c3cc(Br)ccc3F)n3nnnc3N2)c1 (stereo not given),–,"inconclusive: 2.13 µM [inhibitor, partial curve]"
CCOc1ccc(-c2cc(C)n3nc(C(=O)Nc4ccc(C)c(C)c4)cc3n2)cc1,–,"inconclusive: 30.1 µM [inhibitor, single point]"
Cc1oc(-c2cccc(Cl)c2)nc1CN1CCC(C(=O)NCCCN2CCN(c3ccc(F)cc3)CC2)CC1,–,active: 13.5 µM
COc1ccc(NC(=O)Cc2csc(COc3cccc(C)c3)n2)cc1OC,–,"inconclusive: 26.9 µM [inhibitor, partial curve]"
Cc1ccc(S(=O)(=O)NCCc2csc(-c3cccc(F)c3)n2)cc1,–,"inconclusive: 10.7 µM [inhibitor, partial curve]"
CCc1ccc(NC(=O)CSc2nc(=O)n(Cc3cccnc3)c3c2CCC3)cc1,–,"inconclusive: 26.9 µM [inhibitor, partial curve]"

Structure (SMILES),"activity change, negative = inhibition",Potency
COc1ccc(NS(=O)(=O)c2ccc3c(c2)CC(C)N3C(=O)C2CCC2)cc1OC (stereo not given),–,"inconclusive: 0.849 µM [inhibitor, full curve]"
Cc1cc(NC(=O)NCc2ccc3c(c2)CCN3C(=O)c2ccccc2)ccc1Br,–,"inconclusive: 12 µM [inhibitor, partial curve]"
CCCC(=O)c1ccc(OC(=O)c2c(-c3ccccc3Cl)noc2C)cc1,–,"inconclusive: 30.1 µM [inhibitor, single point]"
Cc1cccc(-n2nc(C)c(C(=O)Nc3cc(C)ccc3C)c2-n2cccc2)c1,–,"inconclusive: 23.9 µM [inhibitor, partial curve]"
COc1cccc(Cn2c(SCc3ccc(C(=O)N4CCC(C)CC4)cc3)nc3ccncc32)c1,–,"inconclusive: 15.1 µM [inhibitor, partial curve]"
O=C(c1ccc2c(c1)OCCO2)N(Cc1cccnc1)c1nc2c(F)cc(F)cc2s1,–,"inconclusive: 37.9 µM [inhibitor, single point]"
O=C(C1CCC(CNS(=O)(=O)c2cccs2)CC1)N1CCN(c2ccc(Cl)cc2)CC1 (stereo not given),–,"inconclusive: 4.78 µM [inhibitor, partial curve]"
COc1ccc(S(=O)(=O)c2cc3cc(C(C)(C)C)cc(O)c3oc2=O)cc1,inactive: -18.7%,–
CCCN(c1ccccc1CC)S(=O)(=O)c1ccc2c(c1)CC(C)N2C(=O)C1CC1 (stereo not given),–,active: 13.5 µM
CN(C)S(=O)(=O)c1ccc(C(=O)NCCSc2c(-c3ccc(Br)cc3)[nH]c3ccccc23)cc1,–,"inconclusive: 15.1 µM [inhibitor, partial curve]"
COc1cc(CN(C(=O)c2ccc(OC(C)C)cc2)c2ccccn2)cc(OC)c1OC,–,"inconclusive: 8.49 µM [inhibitor, partial curve]"
CCOC(=O)c1oc2c(c1C)-c1nn(Cc3ccc(Cl)cc3)cc1CC2,–,"inconclusive: 33.8 µM [inhibitor, single point]"
Cc1ccc(Cn2cc(/C=C(/C#N)C(=O)Nc3cccc(Cl)c3)c3ccccc32)cc1,–,"inconclusive: 12 µM [inhibitor, partial curve]"
COc1ccc(OC)c(CCNC(=O)c2cnn(-c3ccc(C)cc3C)c2C2CCN(C(=O)OC(C)(C)C)CC2)c1,–,"inconclusive: 30.1 µM [inhibitor, single point]"
CCN(C(=O)c1oc2ccc(S(=O)(=O)N3CCCCCC3)cc2c1C)c1ccccc1,–,"inconclusive: 30.1 µM [inhibitor, partial curve]"
Cc1cccc(Nc2nc(Nc3cccc(C)c3)nc(N3CCOCC3)n2)c1,–,"inconclusive: 21.3 µM [inhibitor, partial curve]"
Cc1ccc(NS(=O)(=O)c2ccc(-c3cnc(C4CC4)o3)cc2)cc1N(C)C,–,"inconclusive: 2.13 µM [inhibitor, full curve]"
COc1ccc(-c2noc(Cn3c(=O)c4ccccc4n(CC(=O)Nc4cccc(C(F)(F)F)c4)c3=O)n2)cc1,–,"inconclusive: 23.9 µM [inhibitor, single point]"
CC(C)c1ccc(NC(=O)C2CCN(c3nc(-c4ccc(C(C)C)cc4)no3)CC2)cc1,–,active: 0.0953 µM
COc1ccc(Cn2c(SCc3ccc(C(=O)NC4CCCC4)cc3)nc3ccncc32)cc1,–,"inconclusive: 26.9 µM [inhibitor, single point]"

# Source: PubChem BioAssay AID1508621 (National Center for Advancing Translational Sciences (NCATS), 2021)
